Laboratory results: PubChem BioAssay AID588855 (National Center for Advancing Translational Sciences (NCATS), 2011)
Out of some 410,000 compounds screened, about 5,000 (1.2%) were called active. Inconclusive results, whose numbers are uncertain, are shown with a selection of clear calls. The call rests on the fitted dose curve; in most records, active means well fitted inhibition curve with a large enough effect; inconclusive means small, poorly fitted or top-dose-only effect; inactive means no such curve, though single readings can be large or run the other way. Potencies of inconclusive entries are doubtful fits and often do not repeat.

Assay: qHTS for Inhibitors of TGF-b; further: nearly all actives have a fitted effect of over 65% in size
Conditions: HepG2 CAGA-GFP TGF-b/SMAD3 reporter, GFP fluorescence, 18 h, TGF-beta stimulated, 500 pg/mL final; series mostly up to 46.1 µM; activity, negative = inhibition: at the top concentration
Method in brief: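 Cell-based qHTS in HEPG2 carrying a CAGA-GFP Smad reporter; compounds added before 500 pg/mL final TGF-beta, 18 h incubation at 37 degrees C, GFP fluorescence quantified per cell by imaging cytometry.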
On the % scale 0 is the no-effect control and ±100 the full control effect; potency means the concentration at half of the fitted maximal effect; tags describe the fitted curve by direction and shape.

Row | SMILES | Potency | activity, negative = inhibition
1 | CC(=O)c1cccc(-c2cnc3c(NC=O)cc(-c4ccc(N5CCN(C)CC5)cc4)cn23)c1 | inconclusive: 15.8 µM [inhibitor, partial curve, poor fit] | –
2 | CC(=O)c1cccc(NC(=S)NC(=O)c2ccc(Cl)cc2)c1 | – | inactive: -16.9%
3 | CCn1cnc2c1c(=O)n(Cc1csc(-c3ccccc3)n1)c(=O)n2Cc1ccccc1 | inconclusive: 35.5 µM [inhibitor, single point] | –
4 | Cc1ccccc1NC(=O)CSc1nc2ccc(NC(=O)COc3ccccc3F)cc2s1 | inconclusive: 31.6 µM [inhibitor, single point] | –
5 | CC(=O)c1ccc(N2CCN(CC(O)COC(c3ccccc3)c3ccccc3)CC2)cc1 (configuration not stated) | inconclusive: 35.5 µM [inhibitor, single point] | –
6 | Cc1cccc(-c2nc(Nc3cccc(O)c3)c3ccccc3n2)c1 | inconclusive: 25.1 µM [inhibitor, single point] | –
7 | O=C(Nc1ccc(Oc2cccc(C(F)(F)F)c2)nc1)c1cccs1 | inconclusive: 10 µM [inhibitor, partial curve] | –
8 | COc1cccc(CNc2nc3nc(C)c(Cl)c(C)n3n2)c1 | inconclusive: 6.31 µM [inhibitor, partial curve, poor fit] | –
9 | CC(C)CCNC(=O)Cc1ccc(Nc2nc(=S)[nH]c3ccccc23)cc1 | – | inactive: 6.39%
10 | Cc1cc(C)cc(NC(=O)CSc2ccc(-c3ccccn3)nn2)c1 | inconclusive: 11.2 µM [inhibitor, partial curve] | –
11 | COc1ccc(C)cc1NCc1cc(=O)oc2cc(-c3ccccc3)c(O)cc12 | inconclusive: 31.6 µM [inhibitor, single point] | –
12 | O=S(=O)(NCc1ccccc1)c1ccc2[nH]c3c(c2c1)CCCCC3 | inconclusive: 12.6 µM [inhibitor, partial curve, poor fit] | –
13 | CCN(CC)CCn1c2ccccc2c2nc3ccccc3nc21 | inconclusive: 22.4 µM [inhibitor, single point] | –
14 | COc1cccc(NS(=O)(=O)c2ccc3[nH]cc(C(=O)NC4CCCCC4)c(=O)c3c2)c1 | inconclusive: 0.447 µM [inhibitor, full curve, poor fit] | –
15 | COc1cc(NC(=O)CCNS(=O)(=O)c2ccc3c(c2)CCC(=O)N3)cc(OC)c1 | inconclusive: 10 µM [inhibitor, partial curve] | –
16 | Cc1cccc(NC(=O)C(c2cccc([N+](=O)[O-])c2)N2CCCCC2)c1 (configuration not stated) | inconclusive: 11.2 µM [inhibitor, partial curve, poor fit] | –
17 | CC(C)c1ccc(N(CC(=O)NC(C)(C)C)C(=O)CCC(=O)Nc2nccs2)cc1 | inconclusive: 11.2 µM [inhibitor, single point] | –
